Self-cleavage data for 84 variants are collected here from the RNAGym collection of RNA variant scans (doi:10.7554/elife.90254).

Read counts are not given, so values of variants with three or more changes are uncertain.

The labels stand for the following.
B1: OR4K15 (parent)
chain: GUUAACGGUCAUAGGCCAUGGAAACUAGGAGCACCAUUUCGCUGCCAGUGAAGAAAUGAACAAAGAAAAUCUGGGCCAGGCAGGCAUCAAAAGAAAUAGUCUUGCGCUCAACCAGAAAGUCUGUAAUCAUUUUAAGGGUA

In the series the parent is B1. Briefly: self-cleavage, relative activity (ratio to wild type); higher = more cleavage; in vitro, sequencing; the parent is a self-cleaving ribozyme.
For the variant U2C A68U U87C, the self-cleavage worked out at 1.01.

As for U2A A13G A33G A47G A52G, the self-cleavage was 0.38.

Regarding U2C A54U A90G U108C, the self-cleavage is 0.03.

U2C A55G G83A A117G A126G A140G: the self-cleavage came to 1.02.

Turning to U2C U100C U102C U127C, the self-cleavage is 0.49.

As for U2C A18G A62G A68G A82U, the self-cleavage came to 0.32.

As for U2C A60G A68G, the self-cleavage turned out to be 0.87.

On to U2A A23G A68C A86G, for which the self-cleavage was determined as 0.88.

In the case of U2C U49C U108G, the self-cleavage stood at 0.05.

G1A U39C U87A A116G: the self-cleavage was 0.68.

As for U2C U12C A24G U70A, the self-cleavage was 1.18.

As to U2A U108C U122C, the self-cleavage was 0.02.

Consider U2A A86G A134U, for which the self-cleavage turned out to be 0.42.

For U2C U38C A95G, the self-cleavage came out at 1.24.

With U2C A18U A54G, the self-cleavage is 1.12.

Regarding U2C A24U U49A A135C, the self-cleavage stood at 1.29.

Take U2C A24C A96U: the self-cleavage was determined as 1.05.

As to U2C U87A A134G, the self-cleavage is 0.45.

As for U2C A59G A118U, the self-cleavage is 0.28.

For U2C U108C A125G, the self-cleavage stood at 0.01.

U2A A54G A111G A118U: the self-cleavage came to 0.02.

Turning to U2C A67G A116U, the self-cleavage was found to be 0.19.

Regarding U2A U3C A68G A118G, the self-cleavage amounted to 0.89.

For the variant U2A A11G A51G A126G, the self-cleavage came out at 0.55.

Consider U2C A47G A55U U127C A129G, for which the self-cleavage came to 0.06.

G1U U57C A60G A82G: the self-cleavage stood at 0.44.

Take U2C A66G U103G A116G: the self-cleavage amounted to 0.05.

Consider U2C A54U A92G U102C, for which the self-cleavage is 1.34.

On to U2A A69G U103C A110U, for which the self-cleavage stood at 0.93.

Consider U2C U9C A22G A30G, for which the self-cleavage was 1.68.

Take U2C A36G C46A A62G U87C A125G: the self-cleavage was determined as 0.13.

As for G1U U2A A116G A135G, the self-cleavage amounted to 0.7.

For U2C U9C C46U A67G U70C A92G A94G, the self-cleavage came to 0.65.

U2C U57C U100C: the self-cleavage worked out at 1.61.

Consider U2C U108A A117G, for which the self-cleavage was determined as 0.

Turning to U2C A33G U70A, the self-cleavage is 0.33.

Consider U2C A47G U108C, for which the self-cleavage amounted to 0.01.

Regarding U2C A27C A33G U122A, the self-cleavage is 0.49.

Turning to U2C A27U A86G U122C, the self-cleavage was determined as 0.86.

As to U2C A47G A55G U72A C109U A117G, the self-cleavage was 0.08.

U2A C113U U130G: the self-cleavage was determined as 0.09.

As for U2C A22G A36G A92G U108C C109U, the self-cleavage was determined as 0.02.

Consider U2C U3C A94G, for which the self-cleavage amounted to 1.1.

As for U2C A56G G93U, the self-cleavage was found to be 1.36.

For U2C A27G A52G A82G C105G A126G, the self-cleavage was found to be 0.02.

Turning to U2C A13G A52G U108A, the self-cleavage amounted to 0.22.

Consider U2A G29A A69G A110G A126G, for which the self-cleavage was 0.15.

As for U2C A68G A90G A98U, the self-cleavage amounted to 0.98.

Consider U2C A11G U132C, for which the self-cleavage was determined as 0.55.

As for U2A U72C U100G, the self-cleavage came out at 0.33.

For U2C U108C A114C U131C, the self-cleavage is 0.01.

With U2C U49C A52U A140G, the self-cleavage was 0.86.

U2C A60G A63G A66G U102C U103C U122C A140G: the self-cleavage came out at 0.13.

As for G1A U43C U49C A51G U124G, the self-cleavage came out at 1.16.

With U2C A90G U124A, the self-cleavage amounted to 0.12.

Turning to G1A U19C U72C A89G A90G, the self-cleavage came to 0.28.

On to U2C A52G U87C, for which the self-cleavage is 1.12.

On to U2C U100C U103A, for which the self-cleavage came out at 1.02.

For the variant U2C A114U U132C, the self-cleavage turned out to be 0.01.

In the case of U2C A66G A69U, the self-cleavage amounted to 1.1.

As for U2C U3C A55G A95G A98G, the self-cleavage was 0.89.

In the case of U2C G14C U38C A62G U70C G84C, the self-cleavage amounted to 0.05.

For the variant U2C A59G A86G A129G, the self-cleavage came to 1.06.

U2A A63G U130A: the self-cleavage came out at 0.18.

Regarding U2C C42U A68G, the self-cleavage was 1.18.

As to U2C U37C A54G, the self-cleavage was 0.87.

Turning to U2A A5G A135G, the self-cleavage was determined as 1.2.

As to U2C U9C U72C U100C A116G, the self-cleavage came to 0.82.

U2C A22G A33G A91G A118U U132C: the self-cleavage stood at 0.11.

U2C A89C A91G A135U: the self-cleavage amounted to 0.52.

Consider U2C C61U U130C, for which the self-cleavage is 0.14.

As for U2C U38C A52U C61U U131C, the self-cleavage stood at 0.91.

In the case of U2C U139C A140C, the self-cleavage was 0.65.

Turning to U2C A36G A64G, the self-cleavage was found to be 1.67.

With U2C A22G A52G U122C, the self-cleavage came out at 0.51.

Take U2A U19C U70A A129U: the self-cleavage came out at 0.69.

For U2C A56G A92G U120C, the self-cleavage was found to be 0.38.

U2G A47G A114U A117G: the self-cleavage worked out at 0.

As for U2C A47C A60G, the self-cleavage is 0.91.

With U2C U38C A59G A91G A92G, the self-cleavage was determined as 0.

For U2C U49C U133C, the self-cleavage stood at 1.02.

Consider U2C A5G A30G, for which the self-cleavage worked out at 0.63.

Take U2C A91G A111G: the self-cleavage turned out to be 0.14.

With U2C U9C U72C U100A A110G, the self-cleavage worked out at 0.08.
